“And” between values parts separate entries of the source, which are not always exact repeats. Identical values can stand only once. Screen size: about 420,000 compounds; about 50,000 (12%) were called active. The inconclusive results got no clear call from the source; some entries with a clear call stand among them for comparison. Calls come from the whole dose curve; as a rule, active = well fitted inhibition curve with a large enough effect; inconclusive = small, poorly fitted or top-dose-only effect; inactive = flat fitted curve, though single readings scatter. Where the call is inconclusive, the potency comes from a doubtful curve fit.
Test: qHTS for Inhibitors of human tyrosyl-DNA phosphodiesterase 1 (TDP1): qHTS in cells in presence of CPT; note: nearly all actives have a fitted effect of over 55% in size
Settings: chicken DT40 Tdp1-/-;hTDP1 cells + 20 nM CPT, ATP luminescence, 48 h; activity change, negative = growth inhibition: at 46.2 µM (top of the series) unless noted
Method in brief: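 Cell growth measured by CellTiter-Glo luminescence after a minimum 48 h, 37 C compound exposure with 20 nM CPT in Tdp1-knockout DT40 cells stably expressing hTDP1, seeded 400/well; qHTS titration format.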
% is set by controls: 0 for no effect and ±100 for the full control effect; potency is the fitted concentration of half-maximal effect; tags give direction and shape of the fitted curve.

| SMILES | activity change, negative = growth inhibition | Potency |
| --- | --- | --- |
| CC(OC(=O)c1cccn1C)C(=O)Nc1ccc2c(c1)OCO2 (stereo unspecified) | inactive: -3.33% | – |
| CC1(C(=O)NCc2cccc(C(F)(F)F)c2)CCN1Cc1ccc(-c2ccccc2)o1 (stereo unspecified) | – | inconclusive: 29.1 µM [inhibitor, single point] |
| O=C(CCNC(=O)N1CC(=O)Nc2ccccc21)Nc1ccc(F)c(Cl)c1 | inactive: -2.49% | – |
| c1ccc2c(c1)[nH]c1c(N3CCOCC3)ncnc12 | – | active: 16.4 µM |
| O=C(CN1C(=O)NC2(CCCCC2)C1=O)Nc1cccc(S(=O)(=O)N2CCCC2)c1 | – | inconclusive: 9.2 µM [inhibitor, partial curve, poor fit] |
| NC(N)=NC(N)=Nc1ccc(SC(F)(F)F)cc1 | – | active: 10.3 µM |
| O=C(Nc1ccc(Cl)cc1)C1C2CCC3C(CCC21)C3(Cl)Cl (stereo unspecified) | – | inconclusive: 29.1 µM [inhibitor, single point] |
| CC(=O)Nc1ccc(C=CC=Cc2cccc([N+](=O)[O-])c2)cc1 | – | active: 29.1 µM |
| NC(=Nc1nc(-c2ccccn2)cc2ccccc12)c1ccccn1 | – | active: 0.0146 µM |
| CCCCN(CC)Cc1c(O)ccc2c(-c3ccccc3)cc(=O)oc12 | – | inconclusive: 29.1 µM [inhibitor, single point] |
| N#CSCC(=O)c1cccc2ccccc12 | – | active: 4.61 µM |
| CCc1cccc(NC(=O)Cn2c(=O)n(-c3ccccc3C)c(=O)c3c2c2cc(C)ccc2n3C)c1 | – | inconclusive: 23.1 µM [inhibitor, single point] |
| CCOC(=O)N1CCN(CC(=O)Nc2sccc2C#N)CC1 | – | active: 20.6 µM |
| CCc1nnc(NC(=O)c2ccc(S(=O)(=O)N3CCCc4ccccc43)cc2)o1 | – | inconclusive: 23.1 µM [inhibitor, single point] |
| CC(C)NC(=O)N1Cc2cc(C(=O)NCC(F)(F)F)nc(-c3cccc(-c4cc5ccccc5o4)c3)c2[C@@H]1CCO | – | active: 18.4 µM |
| O=S(=O)(NNC(=S)NCC1CCCO1)c1cc(Cl)ccc1Cl (stereo unspecified) | inactive: 0.551% | – |
| Clc1ccccc1N1CCN(Cc2nnc(-c3ccccc3)o2)CC1 | inactive: -27.3% | – |
| O=C(O)CSc1c(Cl)c(=O)oc2ccc(Cl)cc12 | inactive: -5.24% | – |
| O=S(=O)(c1ccc(Cl)cc1)n1ccc(-c2cccc(OCc3c(F)cccc3Cl)c2)n1 | inactive: -28.8% | – |
| CC(=O)OCC(=O)Nc1ccc(SC(F)F)cc1 | – | inconclusive: 29.1 µM [inhibitor, single point] |
| CC(=O)N1CCC[C@@]2(CCN(c3ccncc3)C2)C1 | inactive: -1.58% | – |
| CCOC(=O)C1=C(C)NC2=C(C(=O)CCC2)C1c1cccs1 (stereo unspecified) | inactive: 6.06% | – |
| C=CCNC(=S)/N=c1/ccccn1CCC | – | inconclusive: 23.1 µM [inhibitor, single point] |
| Cc1cccc(C(=O)O)c1NC(=O)Cc1cccc2ccccc12 | – | inconclusive: 4.61 µM [inhibitor, partial curve, poor fit] |

| SMILES | activity change, negative = growth inhibition | Potency |
| --- | --- | --- |
| Cc1ccccc1CN1CCc2nc(N3CCN(c4ncccn4)CC3)ncc2C1 | – | inconclusive: 29.1 µM [inhibitor, single point] |
| Cc1ccc(CNC(=O)c2ccc(CS(=O)(=O)Cc3ccc(F)cc3)o2)cc1 | inactive: -9.31% | – |
| Cc1ccc(SCC(=O)Nc2ccc(S(=O)(=O)Nc3nccs3)cc2)cc1 | – | inconclusive: 4.61 µM [inhibitor, full curve, poor fit] |
| CCOC(=O)CC(NC(=O)c1ccccc1F)c1ccc(C)cc1 (stereo unspecified) | inactive: -3.28% | – |
| Cc1ncc([N+](=O)[O-])n1CC(=O)N/N=C/c1ccc(F)cc1 | inactive: -1.33% | – |
| COC(=O)[C@@]1(Cc2ccc(OC)cc2)[C@H]2c3cc(C(=O)N4CCCC4)n(Cc4c(CO)[nH]cc(C)c4=O)c3C[C@H]2CN1C(=O)c1ccccc1 | – | inconclusive: 23.1 µM [inhibitor, single point] |
| COc1nc(N(C)C)nc(N(C)c2cc(Cl)cc(Cl)c2)n1 | inconclusive: -32.9% [inhibitor] | – |
| COc1ccc(Cl)cc1C(=O)Nc1ccc(N(C)C(C)=O)cc1 | – | inconclusive: 29.1 µM [inhibitor, single point] |
| Cn1nnnc1SCC(=O)Nc1ccc(C(=O)N2CCN(Cc3ccccc3F)CC2)cc1 | inactive: -19.3% | – |
| COc1cc(OC)cc(C(=O)NCC(=O)N2CC=C(c3ccccc3)CC2)c1 | – | active: 3.26 µM |
| Cc1c(CCOC(=O)c2ccc(N3CCOCC3)c([N+](=O)[O-])c2)sc[n+]1CC#N | – | active: 4.61 µM |
| CCC(=O)Nc1ccc(C(=O)N/N=C/c2ccccc2[N+](=O)[O-])cc1 | inactive: -29.2% | – |
| CCCCn1c(O)c(/C=C2\C=NN=C2c2ccccc2)sc1=S | – | inconclusive: 29.1 µM [inhibitor, single point] |
| CCOc1ccccc1C(=O)Oc1c(S(=O)(=O)c2ccc(C)cc2)c(C)nn1-c1ccccc1 | – | active: 10.3 µM |
| O=C(NCC1COc2ccccc2O1)c1ccc(Cl)c(S(=O)(=O)N2CCOCC2)c1 (stereo unspecified) | – | inconclusive: 29.1 µM [inhibitor, single point] |
| CCc1cc2c(SCC(=O)O)ncnc2s1 | – | inconclusive: 11.6 µM [inhibitor, partial curve, poor fit] |
| Cc1cccc(N2CCN(S(=O)(=O)c3cn(C)c(C)n3)CC2)c1C | inactive: -20.7% | – |
| CCCCN(C)CCCNC(=O)Cn1ncc2c3ccccc3n(Cc3cccc(Cl)c3)c2c1=O | – | inconclusive: 23.1 µM [inhibitor, partial curve] |
| COc1cccc(-c2n[nH]c(=S)n2Cc2ccco2)c1 | inactive: 1.12% | – |
| CNC(=S)N1N=C(c2ccc(OC)cc2)CC1c1ccccc1Cl (stereo unspecified) | – | inconclusive: 29.1 µM [inhibitor, single point] |
| O=C(/C=C/c1ccccc1)c1ccc(O[C@H]2OC(CO)C(O)C(O)C2O)cc1O (stereo partly specified) | – | inconclusive: 25.9 µM [inhibitor, single point] |
| CCOC(=O)N/N=C\c1ccccc1OC/C=C/c1ccccc1 | – | inconclusive: 23.1 µM [inhibitor, single point] |
| CC(C)c1nc2oc3c(NCC4CCCO4)ncnc3c2c2c1COC(C)(C)C2 (stereo unspecified) | – | inconclusive: 18.4 µM [inhibitor, partial curve] |
| CCCNC(=O)C(Cc1ccc(C(F)(F)F)cc1)NC(=O)c1ccc2ccccc2n1 (stereo unspecified) | – | inconclusive: 18.4 µM [inhibitor, single point] |

| SMILES | activity change, negative = growth inhibition | Potency |
| --- | --- | --- |
| COC(=O)Cc1ccc(NC(=S)NCc2ccc(Cl)cc2)cc1 | – | inconclusive: 5.17 µM [inhibitor, full curve] |
| CCOC(=O)c1cccc(NC(=O)CN2C(=O)C3C4C=CC(C4)C3C2=O)c1 (stereo unspecified) | inactive: 2.19% | – |
| COc1cc(NC(=O)CSc2nc(-c3cccs3)cc(C(F)(F)F)n2)cc(OC)c1OC | – | active: 20.6 µM |
| Cc1cc(OCc2cc(C(=O)N(C)CC3CCOCC3)no2)cc(C)c1Cl | – | inconclusive: 23.1 µM [inhibitor, single point] |
| O=C(NCc1ccco1)C(c1ccccc1)N(Cc1ccccc1)C(=O)Cn1nnc2ccccc21 (stereo unspecified) | – | inconclusive: 29.1 µM [inhibitor, single point] |
| O=C(COC(=O)c1ccc(-c2ccc([N+](=O)[O-])cc2)o1)NC(=O)NC1CCCCC1 | – | inconclusive: 20.6 µM [inhibitor, single point] |
| CCOc1ccc(N(CC(=O)Nc2ccc3c(c2)OCCO3)S(=O)(=O)c2c(C)noc2C)cc1 | – | inconclusive: 20.6 µM [inhibitor, single point] |
| Cc1cccc(Nc2nc(NCC3CCCO3)nc(N)c2[N+](=O)[O-])c1 (stereo unspecified) | – | inconclusive: 29.1 µM [inhibitor, single point] |
| CC(C)N(Cc1ccccc1)C(=O)COC(=O)C1CCCCC1 | inactive: 4.55% | – |
| Cc1cc(C)c(O)c(-c2cc(C(=O)NCc3ccccc3)[nH]n2)c1 | – | active: 18.4 µM |
| CC(C)(C)c1cc(NC(=O)CSc2nnc(N)s2)n(-c2ccccc2)n1 | inactive: -4.99% | – |
| O=C(Nc1ccc(S(=O)(=O)Nc2nccs2)cc1)c1ccc(N2C(=O)c3ccccc3C2=O)cc1 | inactive: -2.51% | – |
| Cc1cccc(CSc2nc3c(c(=O)[nH]2)CCC3)c1 | – | inconclusive: 16.4 µM [inhibitor, single point] |
| CC(=O)N1[C@@H]2CC3C4CC=C5C[C@@H](O)CC[C@]5(C)C4CC[C@]3(C)[C@@]21C(C)=O (stereo partly specified) | – | inconclusive: 2.59 µM [inhibitor, full curve] |
| Cc1cc(NC(=O)CSc2c3c(nc4ccccc24)CCC3)no1 | – | inconclusive: 29.1 µM [inhibitor, single point] |
| CCOc1cccc(C2C=C(c3ccc4c(c3)OCO4)NC(c3ccccc3Cl)N2)c1O (stereo unspecified) | – | inconclusive: 22.4 µM [inhibitor, single point] |
| CN(Cc1ccccc1N1CCCC1)C(=O)c1cc2cc(Cl)ccc2o1 | – | active: 11.6 µM |
| O=C(Nc1ccc(F)cc1F)c1cccc2c1C(=O)N(C1CCCCC1)C2 | – | inconclusive: 25.9 µM [inhibitor, single point] |
| Cn1cnc2c(NCc3ccccc3)nc(NCCO)nc21 | – | inconclusive: 26.6 µM [inhibitor, single point] and inconclusive: 29.1 µM [inhibitor, single point] and inconclusive: 39.8 µM [inhibitor, single point] |
| Cc1cc(C)c(S(=O)(=O)NCc2ccccn2)c(C)c1 | inactive: 6.66% | – |
| COc1ccc(-n2c(=O)[nH]c3c(C(N)=O)nc(C4CCCCC4)nc32)cc1 | – | inconclusive: 29.1 µM [inhibitor, single point] |
| Cc1cccc(N2C(=O)N3[C@H](c4ccc(Br)cc4)[C@@H]4C(=O)N(C(C)(C)C)C(=O)[C@@H]4[C@]3(C)C2=O)c1 | – | active: 18.4 µM |
| COc1ccc(C2=NNC(=O)CC2)cc1 | inactive: -20.4% | – |
